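The compound was tested at five concentrations on cells cultured in 96-well plates, with a 48-hour exposure period. GI50 is the concentration that inhibits growth by half. TGI is the concentration that stops growth completely.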
System: NCI-H322M lung
Assay: DTP human tumour cell line panel, 48 h

Cc1cc(C)c2c(c1)C(=O)C1(C2)Cc2c(ccc(C)c2C)C1=O (stereo not drawn)
TGI: > 100 µM

NC(=O)C(=CN1CC(=O)NC1=S)C(N)=O
TGI: > 100 µM

Cc1cc(C)c(NS(=O)c2cccc([N+](=O)[O-])c2)c(C)c1 (stereo not drawn)
TGI: > 100 µM

O=C(N/C(=C/c1ccc(Cl)cc1)c1nc2ccccc2c(=O)n1Nc1ccc([N+](=O)[O-])cc1[N+](=O)[O-])c1ccccc1
TGI: > 100 µM

C=C1C(=O)OC2/C=C(\C)CC(O)/C=C(/CO)CC(OC(=O)/C(C)=C/C)C12 (stereo not drawn)
TGI: 242 µM

ClC1=C(Cl)C(Cl)=C(Cl)C1=Cc1ccc(Cl)cc1
GI50: 1940 nM | TGI: 4.09 µM

CN(NC(=O)c1cccs1)C1=NCCN1
TGI: > 100 µM

CCCCCCC1N=C(N)N=C(N)N1c1ccc(Cl)cc1 (stereo not drawn)
GI50: 10200 nM | TGI: > 100 µM

CCNCCNc1cc(-c2cccc(C(F)(F)F)c2)c(C#N)c2nc3ccccc3n12
GI50: 1660 nM | TGI: 3.14 µM

O=C(CCO)OCCCCCC/C=C\CCCCCC/C=C\CCCCCCCCOC(=O)CCO
TGI: 30.9 µM

CC(C)NC(=O)O/N=C1\CCC2[C@@H]3CC=C4C[C@@H](OC(=O)NC(C)C)CC[C@]4(C)C3CC[C@]12C (stereo partly drawn)
TGI: 6.11 µM

CC1(C)C(=O)C2(C#N)CCC1C2 (stereo not drawn)
TGI: > 100 µM

OC(c1ccccc1)c1c(-c2ccccc2)oc(-c2ccccc2)c1C(O)c1ccccc1 (stereo not drawn)
TGI: 25.2 µM

NC(N)=N/N=C/c1ccc(O)c(C(=O)O)c1
TGI: > 100 µM

CCOC(=O)c1c(N2CCOCC2)[nH]c(=O)c(C(c2ccc(Cl)c([N+](=O)[O-])c2)c2c(O)c(C(=O)OCC)c(N3CCOCC3)[nH]c2=O)c1O
TGI: > 100 µM

O=c1[nH]c2c(O)cccc2c2cc3c(c(O)c12)OCO3
TGI: > 100 µM

CCC[CH2][Sn]1([CH2]CCC)[O]C(=O)c2cc(C)ccc2[O]1
GI50: 1510 nM | TGI: 2.85 µM

O=P1(O)c2ccccc2CS(=O)(=O)Cc2ccccc21
TGI: > 100 µM

CCN1C(=O)N(CC)C2C1NN=c1s/c(=C\c3ccccc3)c(=O)n12 (stereo not drawn)
GI50: 720 nM | TGI: > 100 µM

C[C@@H](Oc1cc(-c2cnn(C3CC4(CCCNC4)C3)c2)cnc1N)c1c(Cl)ccc(F)c1Cl (stereo partly drawn)
GI50: 2600 nM | TGI: 7.74 µM

CCOC(=O)CCC(NC(=O)c1ccc(Oc2nc3ccccc3nc2C(=O)OCC)cc1)C(=O)OCC (stereo not drawn)
TGI: > 100 µM

CN(NC(=O)CC(=O)NN(C)C(=S)c1ccc(Cl)cc1)C(=S)c1ccc(Cl)cc1
GI50: 19500 nM | TGI: > 100 µM

CN(C)CCOc1nc2ccccc2c2c1-c1ccc(Cl)cc1C2=O
GI50: 538 nM | TGI: 2.19 µM

CCOc1ccc(NC(=O)CCC(=O)NN)cc1
TGI: > 100 µM

COc1nc2c(c(=O)n1C)NC(C(O)C(O)CO)C=N2 (stereo not drawn)
TGI: > 10 µM

O=C(NC/C(Cl)=C/Cl)Nc1cccc2c1CCCC2
TGI: > 100 µM

Cc1cc(C)c2[s+]snc2c1
TGI: > 100 µM

NC(=O)NC(=O)C1CCCCC1C(=O)O (stereo not drawn)
TGI: > 100 µM

CCCCCc1c(C)[nH]c(/C=c2\[nH]/c(=C3/C=c4ccccc4=N3)cc2OC)c1C
GI50: 455 nM | TGI: 7.48 µM

CC(C)(C)OC(=O)N/N=C(/N)c1ccccc1
TGI: > 100 µM

C=C1CC(C/C=C(\C)CC2CC(=C)C(=O)O2)OC1=O (stereo not drawn)
TGI: > 100 µM

O=C(Nc1cc(Cl)c(Cl)cc1Cl)C(=O)C(C(=O)c1ccc2ccccc2c1)C1OC(=O)c2ccccc21 (stereo not drawn)
TGI: 44.4 µM

O=C1C2Nc3ccccc3SC2C(=O)N1c1cccc([N+](=O)[O-])c1 (stereo not drawn)
TGI: > 100 µM

O=C1c2ccccc2C(=O)c2sc(Nc3ccc(Cl)c(Cl)c3)nc21
TGI: 29 µM

O=C1c2cccc3cc([N+](=O)[O-])cc(c23)C(=O)N1O
TGI: 99.8 µM

CS(=O)(=O)c1nc(Cl)c(Cl)c(C#N)c1Cl
TGI: 31.5 µM

CCCCOc1ccc(S(=O)(=O)/N=C(\NN)Nc2ccc(Cl)cc2)cc1
TGI: > 100 µM

COc1ccc2c(c1)CC[C@@H]1[C@@H]2CC[C@]2(C)[C@@H](O)/C(=C/c3ccncc3)C[C@@H]12
TGI: 35.8 µM

Cc1cc(Br)cc(C)c1NC(=O)C(=O)C1C(=O)C(CC2C(=O)c3ccccc3C2=O)C(=O)CC1(C)C (stereo not drawn)
TGI: > 100 µM

ClCC1(CCl)COC1
TGI: > 100 µM

COc1ccc(C2C3=C(COC3=O)N(CCO)c3cc4c(cc32)OCCO4)cc1OC (stereo not drawn)
GI50: 11000 nM | TGI: > 50 µM

CCOc1ccc2c(c1)NC(=O)C(C1OC(c3ccccc3)=CC1=O)S2 (stereo not drawn)
TGI: > 100 µM

O=C(/C=C/c1ccc(F)c(F)c1)OCCc1ccccc1
TGI: > 100 µM

COc1cnc2c(c1)C(=O)c1c-2n(CCCN2CCN(CCO)CC2)c(=O)c2cc([N+](=O)[O-])ccc12
GI50: 2380 nM | TGI: 6.07 µM

Nc1cccc2nsnc12
TGI: > 100 µM

O=S(Cc1cc2c(cc1Br)OCO2)c1ccccc1 (stereo not drawn)
TGI: > 100 µM

Cc1cc(=O)oc2c(CNC(C(=O)O)C(C)O)c(O)ccc12 (stereo not drawn)
TGI: > 100 µM

CC(C)CNc1nc(N=[N+]=[N-])nc(NCC(C)C)n1
GI50: > 10000 nM | TGI: > 10 µM

CCCCCn1cnc2c1S(=O)(=O)N(C)C(NC(=O)c1ccccc1)=N2
TGI: > 100 µM

O=C(O)Cc1ccc2c(c1O)C(=O)c1c(ccc(CC(=O)O)c1O)C2=O
TGI: > 100 µM

CC1=NN(c2ccccc2)C(=O)C1N=Nc1ccc(Br)c(C)c1 (stereo not drawn)
TGI: > 100 µM

CCOC(=O)C(Cc1cn(S(=O)(=O)c2ccc(C)cc2)cn1)P(=O)(OCC)OCC (stereo not drawn)
TGI: > 100 µM

CCCc1ccc(OCC(=O)N/N=C/c2c(-c3ccccc3)[nH]c3ccccc23)cc1
TGI: > 100 µM

OC1C2C=CCC1CCC2 (stereo not drawn)
TGI: > 100 µM

C[C@@H]1CN2[C@H]3[C@@H]1CC[C@]31CCC(=O)O[C@]1(C)[C@@H]1CC[C@H]3CCC=C3[C@@H]12
GI50: > 70000 nM | TGI: > 70 µM

CCOC(=O)N1CCC(=O)C[C@@H]1C/C=C/P1(=O)O[C@H](c2ccccc2)C(C)N1C(C)C (stereo partly drawn)
TGI: > 100 µM

CO[C@]12C[C@H](CNC(=O)c3cc(Br)c(Br)[nH]3)O[C@H]1NC(=O)N2
TGI: > 100 µM

COc1ccc2[nH]c3c(C)c4cnccc4c(C)c3c2c1
TGI: > 10 µM

CON
GI50: > 100000 nM | TGI: > 100 µM

N#CC(c1ccccc1)N(CCc1ccccc1)C(=O)Oc1ccccc1 (stereo not drawn)
TGI: > 100 µM

Cc1onc(-c2c(F)cccc2Cl)c1C(=O)N[C@@H]1C(=O)N2[C@@H]1SC(C)(C)[C@@H]2C(=O)O
TGI: > 100 µM

O=C1CCC(=O)C(C(=O)CCC(=O)Nc2cccc(Cl)c2)C1 (stereo not drawn)
TGI: > 100 µM

CCOC(=O)C1(Cc2ccc3ccccc3c2)CCCCCN1 (stereo not drawn)
TGI: > 100 µM

CC[N+](CC)(CC)/C(=N/S(=O)(=O)c1cc(C)c(Cl)cc1S)[N-]S(=O)(=O)c1ccc(Cl)cc1
TGI: > 100 µM

NC1=NS(=O)(=O)Nc2nc(-c3cccs3)[nH]c21
TGI: > 100 µM

Cc1cccnc1CNC1CC(NCc2ncccc2C)CC(NCc2ncccc2C)C1 (stereo not drawn)
GI50: 3380 nM | TGI: 11.7 µM

CC(=O)NNc1nc(C)c(C(/C=C/c2ccc(NC(C)=O)cc2)=N/NS(=O)(=O)c2ccc(C)cc2)s1
TGI: > 100 µM

COCC12CC(CC1=O)C1C2ON2c3ccccc3C(=O)C12c1ccccc1 (stereo not drawn)
TGI: > 100 µM

C=C1C(=O)OC2CC3(C)OC3C3OC3C3=CC(OC3=O)C12 (stereo not drawn)
GI50: 24500 nM | TGI: 66.4 µM

CC[O-].CC[O-].O=C([CH-]C(=O)c1ccccc1)c1ccccc1.O=C([CH-]C(=O)c1ccccc1)c1ccccc1.[Ti+4]
GI50: > 100000 nM | TGI: > 100 µM

CCc1oc2ccc(OC)c3c2c1C=CC=C3
TGI: > 100 µM

CNCCOc1nc2c3cnccc3cc(-c3cc(OC)c(OC)c(OC)c3)c2c2ccncc12
GI50: 94.8 nM | TGI: 0.764 µM

O=C(CC1(O)C(=O)Nc2c(Cl)ccc(Cl)c21)c1ccc(C2CC2)cc1 (stereo not drawn)
GI50: 2180 nM | TGI: 19.6 µM

COC(=O)CNC(=O)Nc1cc(N2C(=O)ON3C2C(C)(C)N(O)C3(C)C)ccc1C (stereo not drawn)
TGI: > 100 µM

Source: PubChem BioAssay (NCI)
